# Experimental data taken from PubChem BioAssay AID686978 (National Center for Advancing Translational Sciences (NCATS), 2013).
# In all, about 420,000 compounds went through this assay and about 64,000 (15%) were called active. Inconclusive results, whose numbers are uncertain, are shown with a selection of clear calls. Calls come from the whole dose curve; as a rule, active = well fitted inhibition curve with a large enough effect; inconclusive = small, poorly fitted or top-dose-only effect; inactive = flat fitted curve, though single readings scatter. No potency is given beside an inconclusive call; the fits are too rough.
# Test: qHTS for Inhibitors of human tyrosyl-DNA phosphodiesterase 1 (TDP1): qHTS in cells in absence of CPT; note: nearly all actives have a fitted effect of over 55% in size
# Conditions: DT40 Tdp1-/- hTDP1 cells, no CPT, ATP luminescence, 48 h; activity change, negative = growth inhibition: at 46.2 µM (top of the series) unless noted
# Summary of the method: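 A cellular qHTS used chicken DT40 cells lacking endogenous Tdp1 but carrying stably transfected human TDP1. Compounds were applied without camptothecin, and cell growth kinetics were judged by ATP-dependent luminescence after ≥48 hr.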
# % is set by controls: 0 for no effect and ±100 for the full control effect; potency is the fitted concentration of half-maximal effect; tags give direction and shape of the fitted curve.
SMILES,Potency,"activity change, negative = growth inhibition"
CC1(C)Cc2c(c(N3CCOCC3)nc3sc4c(NCC5CCCO5)nnnc4c23)CS1 (stereo unspecified),"inconclusive [inhibitor, partial curve]",
CCN(c1ccccc1)S(=O)(=O)c1ccc(C(=O)Oc2ccc(C(C)=O)cc2)cc1,,inactive: -4.95%
CCOC(=O)CSc1nc2c(sc(=S)n2-c2ccccc2)c(=O)n1-c1ccc(OC)cc1OC,"inconclusive [inhibitor, partial curve]",
CCCCNC(=O)c1cccc(-n2c(C)nc3cccnc32)c1,,inactive: -28.2%
CCC(C(=O)NC(C)(C)C)N(Cc1ccc(OC)cc1)C(=O)c1snc(C(N)=O)c1N (stereo unspecified),"inconclusive [inhibitor, partial curve]",
Cc1ccc(S(=O)(=O)N=S(CCO)CCO)cc1,,inactive: -4.7%
O=C(NCCC1CCCCN1S(=O)(=O)c1ccc(F)cc1)C(=O)NCc1ccccn1 (stereo unspecified),,inactive: 0.736%
Cn1c(=NC(=O)CS(=O)(=O)c2ccccc2)sc2cc([N+](=O)[O-])ccc21,"inconclusive [inhibitor, single point]",
O=S1(=O)CC(N2CCCCC2)CN1CCc1ccccc1 (stereo unspecified),,inactive: -23.2%
CCC(C(=O)Nc1cccnc1)c1ccccc1 (stereo unspecified),,inactive: -10.1%
O=[N+]([O-])c1ccc(-c2ccc(/C=N/Nc3nc(N4CCCCC4)nc(N4CCCCC4)n3)o2)cc1,active: 20.6 µM,
CCCCn1c(=O)c(CCC(=O)OCC(=O)Nc2cccc3ccccc23)nc2ccccc21,"inconclusive [inhibitor, partial curve, poor fit]",
CCN(C(=O)COC(=O)/C=C/c1ccc(O)c(OC)c1)C1CCS(=O)(=O)C1 (stereo unspecified),,inactive: -15.2%
Cc1c(NC(=O)Nc2ccccc2C(F)(F)F)sc2nc3n(c(=O)c12)CCC(C)CC3 (stereo unspecified),active: 13 µM,
C=CCOC1=CS(=O)(=O)N(Cc2ccc(Br)cc2)c2ccc(Br)cc21,"inconclusive [inhibitor, single point]",
O=C1OC(c2cccs2)=N/C1=C\c1ccc(-c2ccccc2Cl)o1,"inconclusive [inhibitor, single point]",
COc1ccc(Nc2nc(N3CCN(S(C)(=O)=O)CC3)nc3ccccc23)c(OC)c1,"inconclusive [inhibitor, partial curve, poor fit]",
CN(CC(=O)Nc1ccccc1Br)C(=O)c1cccnc1Nc1cccc(C(F)(F)F)c1,"inconclusive [inhibitor, single point]",
CCOC(=O)c1ccccc1NC(=O)COC(=O)Cc1ccccc1F,,inactive: -8.5%
O=C(NCc1ccccc1)Nc1cccn(Cc2ccccc2)c1=O,,inactive: -0.723%
CC(C)CCNC(=O)c1cnc2sc(N3CCCCC3)nn2c1=O,"inconclusive [inhibitor, single point]",
COc1ccc(CC(=O)Nc2ccccc2N2CCCC2)cc1,,inactive: -13.3%
CCN(CC)S(=O)(=O)c1ccc(N2CCOCC2)c(NC(=O)c2cc(C)cc(C)c2)c1,active: 18.4 µM,

SMILES,Potency,"activity change, negative = growth inhibition"
CCOc1ccccc1NC(=O)c1cc(SC)ccc1Cl,active: 18.4 µM,
COc1ccc(N(C(=O)c2cccc(C)c2)S(=O)(=O)c2ccc(Cl)cc2)cc1,,inconclusive: -34.5% [inhibitor]
O=C(NCC(c1ccc(F)cc1)N1CCOCC1)c1cccnc1Sc1ccc(Cl)cc1 (stereo unspecified),"inconclusive [inhibitor, single point]",
CCN(C(=O)COC(=O)c1cc(Cl)ccc1OC)c1c(N)n(Cc2ccccc2)c(=O)[nH]c1=O,,inactive: -18.6%
O=C1c2ccccc2NC(c2cn[nH]c2-c2ccc(Cl)cc2)N1O (stereo unspecified),active: 16.4 µM,
COCCNCCCOc1ccc(C)cc1Br,"inconclusive [inhibitor, single point]",
COc1ccc(NC(=O)c2c(NC(=O)CCC(=O)O)sc(-c3ccccc3)c2C)cc1,"inconclusive [inhibitor, single point]",
O=C(O)c1cccc(S(=O)(=O)N2CCN(C(c3ccccc3)c3ccccc3)CC2)c1,,inactive: 5.21%
Cc1ccc(NC(=O)CN2CCC(C(N)=O)CC2)cc1[N+](=O)[O-],,inactive: -11.3%
COc1ccccc1NS(=O)(=O)c1cc(NC(=O)Cc2n[nH]c(=O)c3ccccc23)ccc1Cl,"inconclusive [inhibitor, partial curve, poor fit]",
CCCCCCOc1ccc(C2C(=O)N(C3CCCCC3)CC(=O)N2CCCC)cc1 (stereo unspecified),"inconclusive [inhibitor, single point]",
COc1cc(C(c2nnnn2C2CCCC2)N2CCc3ccccc3C2)ccc1O (stereo unspecified),active: 11.6 µM,
COC(=O)c1ccc(NC(=O)c2ccccc2NS(C)(=O)=O)cc1,"inconclusive [inhibitor, partial curve, poor fit]",
O=C(COc1ccc(S(=O)(=O)N2CCOCC2)cc1Cl)NC1CC1,,inactive: -21.9%
COc1ccccc1NC(=O)CCC(=O)N(Cc1ccc(OC)c(OC)c1)c1nccs1,,inactive: -8.74%
O=C(CN1C(=O)CCc2cc(S(=O)(=O)N3CCOCC3)ccc21)Nc1cccc(C(F)(F)F)c1,"inconclusive [inhibitor, single point]",
Cc1ccccc1CN1C(=O)c2ccccc2C1c1nnnn1Cc1ccccc1 (stereo unspecified),,inactive: -18.2%
COCCOC(=O)C1=C(C)NC(=O)CC1c1cc2c(cc1Br)OCO2 (stereo unspecified),,inactive: -12.9%
C/C(=N\NC(=O)C1(C)CC1(Br)Br)c1cccc(NC(=O)C(C)(C)C)c1 (stereo unspecified),"inconclusive [inhibitor, single point]",
COc1cccc2c(=S)c(CCC(C)=O)c(C)[nH]c12,"inconclusive [inhibitor, partial curve, poor fit]",
CCCn1c(N2CCN(C(=O)N3CCCCC3)CC2)nc2ccccc21,"inconclusive [inhibitor, single point]",
CCc1nc2ccccc2c(NC(=O)CN2CC(C)CC(C)C2)c1C (stereo unspecified),"inconclusive [inhibitor, single point]",
O=C(Nc1sc2c(c1C(=O)N1CCCCC1)CCCC2)c1ccccc1Cl,"inconclusive [inhibitor, single point]",
